Assay results from PubChem BioAssay AID488969 (Vanderbilt High Throughput Screening Facility, 2010).
In all, about 110,000 compounds were measured (“z-score”: median about -0.1, highest 2% from about 2 on). This is one part of the list.

Target: Metabotropic glutamate receptor 8 (Rattus norvegicus) (UniProt P70579)
Test: mGluR8 Gi/Go-coupled signaling modulation – cell-based, rat, thallium flux, HTS, primary screen (AID 488969)
Details: HEK293 rat mGluR8, GIRK (G protein-gated inwardly rectifying potassium channel) thallium flux, FluoZin2; at 10 µM; stronger effect = higher value; submaximal glutamate (EC20) added with thallium

Chain of UniProt P70579 (P70579 whole entry, looked up): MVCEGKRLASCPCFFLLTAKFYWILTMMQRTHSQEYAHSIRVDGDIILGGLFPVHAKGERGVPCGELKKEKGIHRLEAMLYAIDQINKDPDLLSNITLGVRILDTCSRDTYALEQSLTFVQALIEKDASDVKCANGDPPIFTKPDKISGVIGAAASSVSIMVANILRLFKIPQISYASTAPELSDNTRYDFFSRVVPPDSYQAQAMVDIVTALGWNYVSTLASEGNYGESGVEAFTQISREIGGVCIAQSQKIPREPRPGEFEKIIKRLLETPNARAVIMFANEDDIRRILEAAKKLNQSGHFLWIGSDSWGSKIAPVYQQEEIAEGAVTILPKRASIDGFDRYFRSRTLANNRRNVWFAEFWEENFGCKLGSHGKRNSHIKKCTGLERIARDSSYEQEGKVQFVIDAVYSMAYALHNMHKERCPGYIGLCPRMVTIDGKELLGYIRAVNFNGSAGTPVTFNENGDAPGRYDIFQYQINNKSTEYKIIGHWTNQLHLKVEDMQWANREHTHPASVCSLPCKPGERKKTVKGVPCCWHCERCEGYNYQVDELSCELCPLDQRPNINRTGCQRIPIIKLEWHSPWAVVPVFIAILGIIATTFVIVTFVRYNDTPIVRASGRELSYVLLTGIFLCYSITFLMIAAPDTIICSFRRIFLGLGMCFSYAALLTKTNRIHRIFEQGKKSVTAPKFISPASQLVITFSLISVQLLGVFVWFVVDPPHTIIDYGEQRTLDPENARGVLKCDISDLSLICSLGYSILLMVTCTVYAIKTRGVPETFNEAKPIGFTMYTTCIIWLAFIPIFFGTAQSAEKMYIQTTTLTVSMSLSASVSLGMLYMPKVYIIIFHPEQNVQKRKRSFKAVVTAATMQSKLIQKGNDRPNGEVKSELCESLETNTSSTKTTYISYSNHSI

| Structure (SMILES) | z-score |
| --- | --- |
| CCC(C)C(NC=C1C(=O)OC(C)(C)OC1=O)C(=O)O (stereo not given) | 1.28 |
| COc1ccc(C(=O)COC(=O)c2ccc(NC(C)=O)cc2)cc1[N+](=O)[O-] | 0.099 |
| COc1ccc(OC)c(NC(=S)NN2CCOCC2)c1 | -0.00883 |
| Cc1ccc2nc(N(CCCN(C)C)C(=O)c3sc4ccccc4c3Cl)sc2c1 | -0.239 |
| CC1CCN(CCOc2ccc(OCc3ccccc3)cc2)CC1 | 0.306 |
| Cc1ccc(C)c(NC(=O)CSc2nc3ccc(N4C(=O)c5ccccc5C4=O)cc3s2)c1 | -0.109 |
| COc1ccccc1NC(=O)N(C1CCCC1)C1CCN(C(C)=O)CC1 | -0.237 |
| C#CC[N+]1(CC#Cc2ccccc2)CCCC1 | -0.117 |
| C/C(=N\NC(=O)c1cccc(C)c1)c1ccc(N2CCOCC2)cc1 | -0.0654 |
| CCCCNC(=S)N/N=C1\CCCCc2ccccc21 | 2.17 |
| CCN(CC)S(=O)(=O)c1ccc(N/N=C/c2ccc(OC)c(OC)c2OC)nc1 | -0.0561 |
| CC(C)c1nnc(NC(=O)c2cccnc2)s1 | 0.786 |
| CCCCCn1c(SCc2ccncc2)nc2cc(C(=O)NCc3ccco3)ccc2c1=O | -0.248 |
| CCOC(=O)c1cn(Cc2ccccc2)nn1 | -0.0725 |
| CC(C)c1nc2cc3ccccc3cc2[nH]1 | 0.396 |
| CC(=O)NC(Cc1c[nH]c2ccccc12)C(=O)Nc1ccc2c(c1)OCO2 (stereo not given) | -0.54 |
| CC(=O)Oc1c(Cl)cc(Cl)cc1/C=C/c1ccc2ccccc2n1 | -0.16 |
| Cc1cc(C)c2c(c1)cc(C)c1nnc(SCC(=O)Nc3ccc(S(=O)(=O)N4CCCCC4)cc3)n12 | -0.14 |
| CC(C)(C)NC(=O)NC(=O)COC(=O)CCCc1c[nH]c2ccccc12 | -0.951 |
| CCOC(=O)c1c(N)n[nH]c1-c1ccc(OC)cc1 | 0.226 |
| COc1ccc(S(=O)(=O)Cc2ccc(C(=O)N3CCN(c4ncccn4)CC3)o2)cc1 | 0.106 |
| CC(=O)Nc1ccc(Nc2c([N+](=O)[O-])cc(S(C)(=O)=O)cc2[N+](=O)[O-])cc1 | 0.252 |
| CCOC(=O)C1C2C=CC3(CN(c4ccc(Cl)c(F)c4)C(=O)C13)O2 (stereo not given) | 0.0995 |
| O=C(O)CSc1c(-c2ccccc2)[nH]c2ccccc12 | 0.593 |

| Structure (SMILES) | z-score |
| --- | --- |
| O=S1(=O)C=C(SCc2cccc(Cl)c2)Nc2ccccc21 | -0.623 |
| CC1CCc2c(sc3nc(CSc4ncn[nH]4)[nH]c(=O)c23)C1 (stereo not given) | -0.17 |
| O=C(OCC#CCSc1nnc(-c2ccccc2)o1)c1cccs1 | -0.745 |
| O=C(CN(c1ccc(F)cc1)S(=O)(=O)c1ccc2c(c1)OCCO2)Nc1ccccc1 | -0.276 |
| COC(=O)C1=C(Nc2ccc(C)cc2)C=C(C)C(C(=O)OC)C1c1ccc(F)cc1 (stereo not given) | -0.0838 |
| CCN1CC2=C(OC(N)=C(C#N)C2c2ccccc2)/C(=C\c2ccccc2)C1 (stereo not given) | -0.777 |
| COc1ccccc1N1CCN(C(=O)/C=C/c2ccccc2)CC1 | -0.731 |
| O=C(NCc1ccco1)Nc1ccc(Br)cc1 | -0.466 |
| Cc1ccc(CNC(=O)/C(C#N)=C/c2ccc(C)s2)cc1 | -0.213 |
| CSc1nccc(Nc2ccccc2)c1C#N | -0.557 |
| O=C(Nc1ccc(Cl)cc1C(F)(F)F)c1ccccc1 | -0.276 |
| CCc1c(C(=O)N2CCN(c3ccccc3F)CC2)[nH]c(C)c1C(C)=O | 0.0803 |
| Cc1cccc(C(=O)Nc2nnc(Cc3c[nH]c4ccccc34)s2)c1 | -0.0878 |
| CN(C)c1ncc(S(=O)(=O)c2ccccc2)c(-c2ccccc2Cl)n1 | -0.226 |
| O=C(OCc1nnc(-c2ccccc2)o1)c1cc(=O)c2ccccc2o1 | -0.00878 |
| CS(=O)(=O)N(CC(=O)NCc1ccccc1Cl)Cc1ccccc1 | 0.17 |
| CCOc1ccc(C2CC(c3cccc(C)c3)n3ncnc3N2)cc1 (stereo not given) | -0.178 |
| Cc1[nH]c2ccccc2c1/C=N\NC(=O)Cn1nnc(-c2ccccc2)n1 | -0.191 |
| COc1ccccc1CNC(=O)c1ccc(OCC2CCCO2)cc1 (stereo not given) | -0.139 |
| COc1ccc2oc(C)c(C(=O)c3ccc([N+](=O)[O-])cc3)c2c1 | 0.0892 |
| CC(C)COCC1CC2(CC(C)(c3csc(N)n3)OC2=O)C(=O)O1 (stereo not given) | 0.293 |
| O=C(COC(=O)C1CCC(=O)N1)Nc1ccc(Br)cc1 (stereo not given) | 0.343 |
| CCCNC(=O)Nc1ccccc1C(=O)Nc1ccc(OC)cc1 | -0.22 |
| CC(=O)Nc1ccc(-n2cnnn2)cc1 | -0.324 |

| Structure (SMILES) | z-score |
| --- | --- |
| COC(=O)CNC(c1ccccc1)c1cc(Br)ccc1NC(=O)OCc1ccccc1 (stereo not given) | -0.324 |
| Cc1noc(C)c1C(=O)N1CCCC1 | 0.0937 |
| O=C(Cn1cnc2sc(-c3ccccc3)cc2c1=O)NCc1ccccc1 | 0.0158 |
| COc1ccc2c(c1)C1NC(=S)N[C@@](C)(O2)C1C(=O)Nc1ccccc1 (stereo not given in full) | -0.449 |
| O=C1NC2(CCCCC2)C(=O)N1CCS(=O)(=O)Oc1ccccc1 | -0.462 |
| CS(=O)(=O)c1ccc2nc(NC(=O)Nc3cccc(Cl)c3)sc2c1 | 0.135 |
| S=c1[nH]nc(COc2ccccc2)n1/N=C/c1cccs1 | 0.649 |
| O=C(NS(=O)(=O)c1ccccc1)c1ccccc1 | -0.314 |
| NNC(=O)COc1ccc(-c2n[nH]c(C(F)(F)F)c2-c2ccc(Br)cc2)c(O)c1 | -0.252 |
| C/C(Cn1nc([N+](=O)[O-])cc1C)=N\NC(=O)COc1ccc(Cl)cc1Cl | -0.14 |
| CC(Oc1ccc(Cl)cc1)c1ccnn1S(=O)(=O)c1ccc(Cl)cc1 (stereo not given) | -0.157 |
| C=CCNC(=O)CCCCCNS(=O)(=O)c1ccc(OC)cc1 | -0.0366 |
| O=C(CSc1nnc(-c2cccnc2)n1C1CCCCC1)NC1CCCCC1 | 0.178 |
| O=C(NCc1ccccc1)c1ccc2c(c1)C(=O)N(CC1CCCO1)C2=O (stereo not given) | 0.824 |
| O=C(COC(=O)COc1ccc2ccccc2c1)Nc1cc(C(F)(F)F)ccc1N1CCOCC1 | -0.0337 |
| Cc1cc(C)nc(-n2nc(C)c3c(C(F)(F)F)cc(=O)[nH]c32)n1 | 0.172 |
| Cn1c(=O)oc2cc(S(=O)(=O)N3CCOCC3)ccc21 | 0.0252 |
| Cc1ccc(Nc2nnc(SCC(=O)Nc3cccc(S(=O)(=O)NC4=NCCCCC4)c3)s2)cc1 | -0.751 |
| Cc1n[nH]c(C)c1Sc1ccccc1N=Cc1cc(Cl)cc([N+](=O)[O-])c1O | -1.42 |
| CC(=O)N(C(C)=O)c1ccc2nc(C)[nH]c(=O)c2c1 | -0.244 |
| COc1cc(/C=N/Nc2nc3c(c(=O)n(C)c(=O)n3C)n2Cc2ccccc2)ccc1OC(=O)c1ccco1 | 0.0129 |
| COc1ccccc1N1CCN(C(c2ccc(C)cc2)c2nnnn2C(C)C)CC1 (stereo not given) | -0.415 |
